# Data reported in PubChem BioAssay AID2451 (National Center for Advancing Translational Sciences (NCATS), 2010).
# Several values for one entry are separate records, joined by “and”; a condition that tells them apart may be missing. Identical values can stand only once. Among all 290,000 compounds or so, about 2,100 (0.72%) were called active. Inconclusive results, whose numbers are uncertain, are shown with a selection of clear calls. Calls come from the whole dose curve; as a rule, active = well fitted inhibition curve with a large enough effect; inconclusive = small, poorly fitted or top-dose-only effect, or effect the other way; inactive = flat fitted curve, though single readings scatter. Potencies beside an inconclusive call are fits to weak or partial responses and may not hold up.
# Biological target: Fructose-bisphosphate aldolase (Giardia intestinalis (strain ATCC 50803 / WB clone C6)) (UniProt A8B2U2)
# Sequence of UniProt A8B2U2 (A8B2U2 whole entry, looked up): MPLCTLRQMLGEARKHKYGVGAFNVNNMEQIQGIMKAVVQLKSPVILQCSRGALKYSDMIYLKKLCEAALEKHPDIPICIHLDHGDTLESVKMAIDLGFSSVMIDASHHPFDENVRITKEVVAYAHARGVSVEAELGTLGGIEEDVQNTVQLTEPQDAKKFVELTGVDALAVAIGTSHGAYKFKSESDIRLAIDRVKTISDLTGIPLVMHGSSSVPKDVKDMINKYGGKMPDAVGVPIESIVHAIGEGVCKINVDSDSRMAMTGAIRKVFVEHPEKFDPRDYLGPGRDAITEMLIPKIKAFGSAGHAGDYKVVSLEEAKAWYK
# Assay: qHTS Assay for Inhibitors of Fructose-1,6-bisphosphate Aldolase from Giardia Lamblia; note: nearly all actives have a fitted effect of over 55% in size
# Conditions: purified Giardia FBPA; series mostly up to 59.6 µM
# Text: Assay Provider: Osnat Herzberg, University of Maryland
# The objective of this project is to obtain compounds that inhibit Giardia lamblia growth. G. lamblia is a human pathogen which afflicts impoverished nations; it is the most common cause of outbreaks of diarrhea in the United States. During the course of our study of potential drug targets in Giardia, we have identified the Class II (Zn2+ functions in electrophilic catalysis) fructose-1,6-bisphosphate aldolase (FBPA) as an excellent candidate for drug targeting. FBPA is a key glycolytic pathway enzyme, essential for G. lamblia survival. The human FBPA belongs to the Class I aldolases, which have a different substrate binding site structure and a radically different catalytic mechanism (employing a lysine-Schiff base intermediate). Therefore, affinity-based or mechanism-based inhibitors of the Giardia FBPA are expected not to interfere with the catalytic function of the human FBPA.
# A glyceraldehyde-3-phosphate dehydrogenase/triose phosphate isomerase/NAD/arsenate coupled assay was adapted to the 1536-well HTP format for use in the primary screen. This was done by coupling it to a diaphorase/resazurin/resorufin reaction that can be monitored by fluorescence (excitation, 544 nm; emission, 590 nm). Compounds identified in this screen will be further evaluated by coupling the glycerol-3-phosphate/triose phosphate isomerase/NADH assay to a phenazine methosulfate/tetranitroblue tetrazolium color reaction. False positives due to the dehydrogenases and diaphorase inhibition will be eliminated, and selectivity assay will triage inhibitors of mammalian triose phosphate isomerase and the Class I FBPA. G. lamblia FBPA inhibitors identified by the in vitro analyses will be examined for growth inhibition of Giardia trophozoites, and for cytotoxicity in human cells.
# Step,Parameter,Value,Description
# 1,Enzyme reagent,2 uL,40 nM FBPA
# 2,Compound,23 nL,3.68 nM-57.5 uM final concentration
# 3,Time,10 min,RT Incubation
# 4,Substrate/detection Reagent,2 uL,Substrate + enzyme coupling system + AmpLite Red kit
# 5,Time,20 min,RT Incubation
# 6,Detector,525 nm/598 nm (Fluorescence),ViewLux Fluorescence Read (Read 1)
# 1,Medium-binding black solid-bottom Kalypsys plates. FRD or Kalypsys dispenser, 2 uL of FBPA enzyme. Bottle kept at 4C.
# 2,Compound Library (10 mM ,1:5 dilution). Pin-transferred for a [final] range of 3.68 nM-57.5 uM.
# 4,FRD or Kalypsys dispenser, 2 uL of reaction mixture. Bottle kept at 4C and covered in foil to protect from light.
# 6,ViewLux Protocol 1194; Excitation filter wheel A (525/20 Pol; BODIPY TMR FP), Emission filter wheel B (598/25 S; BODIPY TMR FP S).
# Keywords: Fructose-bisphosphate aldolase, FBPA , Giardia lamblia , Giardia, HTS, Inhibitors
# Potency is the fitted concentration of half-maximal effect; tags give direction and shape of the fitted curve.
row,Structure (SMILES),Potency
1,COC(=O)CCCC1=CC2=C(c3ccccc3)C(=O)C(C)(OC(=O)C3CCCC3)C(=O)C2=CN1c1ccccc1 (stereo not given),"inconclusive: 3.54 µM [inhibitor, full curve, poor fit]"
2,CCOC(=O)Cc1cc(-c2ccc(O)cc2)nc2ccc3ccccc3c12,inactive
3,OCCC1CCCCN1CC(O)COCc1ccc(Cl)cc1 (stereo not given),"inconclusive: 11.2 µM [inhibitor, partial curve]"
4,S=C(Nc1ccc(Cl)cc1)N(CCCN1CCOCC1)Cc1cccs1,inactive
5,COc1ccc2[nH]c(C)c(CCN(Cc3cccs3)C(=S)Nc3ccccc3)c2c1,"inconclusive: 11.2 µM [inhibitor, partial curve]"
6,CC(C)NC(=O)N1CCCN(c2nc3ccc(Cl)cc3s2)CC1,inactive
7,CC(=O)N(C1=C(N2CCOCC2)C(=O)c2ccccc2C1=O)c1ccc(C(=O)O)cc1,"inconclusive: 0.561 µM [inhibitor, full curve]"
8,c1ccc(C2=NC(c3ccccc3)N=C(c3ccccc3)N2)cc1,inactive
9,Cc1ccccc1-c1cncnc1NCc1cccs1,"inconclusive: 14.1 µM [activator, partial curve]"
10,COc1ccc(CN2CCN(C(C)C(=O)N(C)Cc3cccc(F)c3)CC2)cc1OC (stereo not given),active: 15.8 µM
11,CCOC(=O)N1CCC(Nc2c(-c3ccc(C)cc3)c(=O)c2=O)CC1,"inconclusive: 35.4 µM [activator, single point]"
12,O=C(Nc1ccc(-c2cn3ccsc3n2)cc1)c1ccc(F)c(S(=O)(=O)N2CCOCC2)c1,inactive
13,CCCc1nc2ccccc2c(NC(=O)CN(CC)CC)c1CC,active: 15.8 µM
14,O=c1c2sccc2[nH]c(=S)n1-c1ccccc1,active: 17.7 µM
15,CCOc1ccccc1N1CC(C(=O)Nc2ccccc2N2CCOCC2)CC1=O (stereo not given),inactive
16,O=C(Nc1ccc(Br)cc1)NC1CCCCCCC1,inactive
17,O=C(CN1C(=O)COc2ccccc21)NCCCN1CCc2ccccc2C1,"inconclusive: 19.9 µM [inhibitor, single point]"
18,COc1cc(CN2CCN(C(=O)COc3ccccc3)CC2)cc(OC)c1OC,"inconclusive: 15.8 µM [inhibitor, single point]"
19,OCCCNC(=S)Nc1ccc2nccnc2c1,"inconclusive: 12.6 µM [inhibitor, partial curve]"
20,CCn1c(SCC(=O)c2ccc(O)c(O)c2)nnc1-c1ccccc1OC,active: 3.15 µM
21,N#CC1=C(N)Oc2c(oc(CO)cc2=O)C1c1cccs1 (stereo not given),"inconclusive: 11.2 µM [inhibitor, partial curve]"
22,CNc1ncc(C(=O)c2ccccc2)s1,inactive
23,O=c1[nH]c(=S)n(C2CC2)c(O)c1/C=N/Nc1ccccc1,"inconclusive: 15.8 µM [inhibitor, partial curve]"
24,Cc1nc2ccc(NC(=O)N3CCSCC3)cc2nc1C,inactive
25,Cc1cc(C)nc(Nc2nc(C)c3cc4c(cc3n2)OCO4)n1,"inconclusive: 17.7 µM [inhibitor, partial curve]"

row,Structure (SMILES),Potency
1,CCC(CNc1cc(OC)cc2cccnc12)NC1CCCCC1 (stereo not given),"inconclusive: 1 µM [inhibitor, full curve]"
2,Cc1cc(NC(=O)CCN2CCN(C/C=C/c3ccccc3)CC2)ccc1Br,"inconclusive: 14.1 µM [inhibitor, partial curve]"
3,CCN1CCN(C(=O)CN(CC)S(=O)(=O)c2ccc(F)cc2)CC1,inactive
4,S=c1[nH]cnc2sc(Nc3ccccc3)nc12,"inconclusive: 39.8 µM [activator, single point]"
5,CN(C)CCCNCC(=O)NN(c1ccccc1)c1ccccc1,"inconclusive: 14.1 µM [inhibitor, partial curve]"
6,c1cc2c3c(cccc3c1)C(N1CCOCC1)=N2,"inconclusive: 3.54 µM [inhibitor, full curve]"
7,O=c1cc(CN2CCN(c3ccccc3O)CC2)nc2sccn12,"inconclusive: 15.8 µM [inhibitor, single point]"
8,COc1ccc(C(=O)C[n+]2cn(C(F)F)c3ccccc32)c(F)c1,inactive
9,CC1(C)CC(=O)c2c(oc3cc(O)c(O)cc23)C1,active: 3.15 µM
10,COC(=O)c1cc(CSc2nnc(-c3ccccc3)c(-c3ccccc3)n2)oc1C,inactive
11,CCCCCCn1c(=O)[nH]c2nc3cc(N)ccc3nc2c1=O,"inconclusive: 1.12 µM [inhibitor, full curve]"
12,C/C(Cn1nnc([N+](=O)[O-])n1)=N\NC(=O)c1ccccc1O,active: 17.7 µM
13,Cc1ccc(OCC(=O)N2CCN(Cc3ccc([N+](=O)[O-])cc3)CC2)cc1,"inconclusive: 19.9 µM [inhibitor, partial curve]"
14,COc1ccc(C(=O)N2CCN(c3ccccc3OC)CC2)cc1,inactive
15,CC(C)C1=CC(=Nc2ccc(S(N)(=O)=O)cc2)C=C(C(C)C)C1=O,"inconclusive: 20 µM [inhibitor, partial curve]"
16,Cc1cc(O)c(-c2cc(O)c(C)cc2O)cc1O,active: 15.8 µM
17,COC(=O)c1sc(-c2cccs2)cc1NC(=O)/C=C/C(=O)O,"inconclusive: 15.8 µM [activator, partial curve]"
18,COc1ccc(/C(O)=C/C(=O)C(=O)NNC(=O)c2ccccc2)cc1,"inconclusive: 17.8 µM [inhibitor, partial curve]"
19,CC(C)NC(=NCc1ccc(Cl)cc1Cl)Nc1ccccc1,inactive
20,COc1ccc(CN2CCN(C(=O)c3cccc4ccccc34)CC2)cc1OC,"inconclusive: 20 µM [inhibitor, partial curve]"
21,Cc1ccc(NC(=O)C2CC(=O)N/C(=N/NC(=O)c3ccc(C)cc3)S2)cc1 (stereo not given),"inconclusive: 31.5 µM [activator, single point]"
22,CCOC(=O)C1=C(C)N(c2ccccc2)C(=O)/C1=C\c1ccco1,inactive
23,COc1ccc(C/C(C)=N/Nc2nc(C)cc(=O)[nH]2)cc1,"inconclusive: 19.9 µM [inhibitor, single point]"
24,c1cc(Cc2cnc[nH]2)ccn1,"inconclusive: 25.1 µM [inhibitor, single point]"
25,CC(=O)c1cccc(NC(=O)c2ccccc2OCc2ccc(F)cc2)c1,inactive

row,Structure (SMILES),Potency
1,CCCCCCCCc1ccc(-c2ccc(C(=O)O)cc2)cc1,"inconclusive: 15.8 µM [activator, single point] and inconclusive: 17.7 µM [activator, partial curve]"
2,N#C/C(=N\Nc1cccc([N+](=O)[O-])c1)C(=O)c1ccc(Br)cc1,inactive
3,O=C1NC(=S)N(C2CC2)C(=O)/C1=C/c1ccc2c(c1)CCN2CCCCl,"inconclusive: 22.3 µM [inhibitor, single point]"
4,COc1ccc(OC)c(N2C(=NC(=O)C3CCCCC3)SC3CS(=O)(=O)CC32)c1 (stereo not given),inactive
5,CC(=O)Nc1ccc(OC(=O)c2cc3cc(Br)ccc3oc2=O)cc1,inactive
6,CC(C)(C)c1cc[n+](/C(C(=S)NC2CC2)=C(/[O-])c2ccc(Cl)s2)cc1,active: 6.29 µM
7,N#CCc1nn2c3c(cnc2c1C#N)C(=O)CCC3,"inconclusive: 12.6 µM [inhibitor, partial curve, poor fit]"
8,Cc1cc(O)c(C=O)c2c1C(=O)Oc1c(C)c(O)c3c(c1O2)C(O)OC3=O (stereo not given),"inconclusive: 15.8 µM [inhibitor, single point]"
9,O=C(Nc1ccc(OC(F)(F)F)cc1)C1=NCCN1,inactive
10,CN1c2ccccc2C(O)=C(C(=S)Nc2ccccc2)S1(=O)=O,"inconclusive: 25.1 µM [inhibitor, single point]"
11,CSc1nc(-c2ccco2)nn1S(=O)(=O)c1ccc(C)cc1,"inconclusive: 17.7 µM [inhibitor, single point]"
12,O=C1c2ccccc2C(=O)N1/N=C/c1ccc(O)c(O)c1,"inconclusive: 6.29 µM [inhibitor, partial curve]"
13,COc1cc(N)ccc1NC(=O)c1cc2ccccc2o1,inactive
14,CC(C)c1cc(C(=O)N/N=C/c2ccoc2)c(O)c(C(C)C)c1,"inconclusive: 20 µM [inhibitor, single point]"
15,CCNc1ccc(Br)cc(C(=O)/C=C/c2c(Cl)cccc2Cl)c1=O,"inconclusive: 3.97 µM [inhibitor, full curve]"
16,Cc1ccc(-n2nnc(-c3cc4ccccc4n3C)n2)cc1,inactive
17,CC(C)(C)c1ccc(C(=O)NC(=S)Nn2cnnc2)cc1,"inconclusive: 9.98 µM [inhibitor, partial curve]"
18,Cc1cc(C)c2cc(CN(CCN3CCCC3)C(=O)Nc3ccc(F)cc3)c(=O)[nH]c2c1,"inconclusive: 31.6 µM [inhibitor, partial curve, poor fit]"
19,COc1cccc(-c2ccnc3[nH]n(-c4ccccc4)c(=O)c23)c1,"inconclusive: 12.6 µM [inhibitor, partial curve]"
20,COCCOC(=O)c1[nH]c2c(c1C)C(=O)C(C(=O)OC)C(C)C2 (stereo not given),"inconclusive: 14.1 µM [inhibitor, partial curve]"
21,COc1ccccc1CN1CCN(C(=O)COc2ccc3ccccc3c2)CC1,active: 20 µM
22,O=C(c1ccc(F)cc1)N1CCN(C2CCCCC2)CC1,"inconclusive: 28.2 µM [inhibitor, partial curve]"
23,CCc1cc(OCCN(C)C)ccc1Cl,"inconclusive: 14.1 µM [inhibitor, partial curve]"
24,Cc1cc(C)c(OCC(O)CN2CCN(c3ccccn3)CC2)c(C)c1 (stereo not given),"inconclusive: 17.7 µM [inhibitor, single point]"
25,COc1cc(CN2CCN(CCCc3ccccc3)C(CCO)C2)cc(OC)c1O (stereo not given),"inconclusive: 3.98 µM [inhibitor, partial curve]"
